Paper PMC4336329 (PLoS ONE, 2015)
The campaign covered roughly 310,000 compounds. About 14,000 (4.5%) showed an effect of 50% or more. The effect is printed as a negative number. This is one part of the list.

These compounds were tested against human ether-à-go-go-related gene (hERG) potassium channel (human, UniProt Q12809) (assay: primary screen, population patch clamp on CHO cells stably expressing hERG).
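Further: peak tail current of the secondary pulse compared with the same well before compound.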

Sequence of human ether-à-go-go-related gene (hERG) potassium channel (Q12809 whole entry, looked up): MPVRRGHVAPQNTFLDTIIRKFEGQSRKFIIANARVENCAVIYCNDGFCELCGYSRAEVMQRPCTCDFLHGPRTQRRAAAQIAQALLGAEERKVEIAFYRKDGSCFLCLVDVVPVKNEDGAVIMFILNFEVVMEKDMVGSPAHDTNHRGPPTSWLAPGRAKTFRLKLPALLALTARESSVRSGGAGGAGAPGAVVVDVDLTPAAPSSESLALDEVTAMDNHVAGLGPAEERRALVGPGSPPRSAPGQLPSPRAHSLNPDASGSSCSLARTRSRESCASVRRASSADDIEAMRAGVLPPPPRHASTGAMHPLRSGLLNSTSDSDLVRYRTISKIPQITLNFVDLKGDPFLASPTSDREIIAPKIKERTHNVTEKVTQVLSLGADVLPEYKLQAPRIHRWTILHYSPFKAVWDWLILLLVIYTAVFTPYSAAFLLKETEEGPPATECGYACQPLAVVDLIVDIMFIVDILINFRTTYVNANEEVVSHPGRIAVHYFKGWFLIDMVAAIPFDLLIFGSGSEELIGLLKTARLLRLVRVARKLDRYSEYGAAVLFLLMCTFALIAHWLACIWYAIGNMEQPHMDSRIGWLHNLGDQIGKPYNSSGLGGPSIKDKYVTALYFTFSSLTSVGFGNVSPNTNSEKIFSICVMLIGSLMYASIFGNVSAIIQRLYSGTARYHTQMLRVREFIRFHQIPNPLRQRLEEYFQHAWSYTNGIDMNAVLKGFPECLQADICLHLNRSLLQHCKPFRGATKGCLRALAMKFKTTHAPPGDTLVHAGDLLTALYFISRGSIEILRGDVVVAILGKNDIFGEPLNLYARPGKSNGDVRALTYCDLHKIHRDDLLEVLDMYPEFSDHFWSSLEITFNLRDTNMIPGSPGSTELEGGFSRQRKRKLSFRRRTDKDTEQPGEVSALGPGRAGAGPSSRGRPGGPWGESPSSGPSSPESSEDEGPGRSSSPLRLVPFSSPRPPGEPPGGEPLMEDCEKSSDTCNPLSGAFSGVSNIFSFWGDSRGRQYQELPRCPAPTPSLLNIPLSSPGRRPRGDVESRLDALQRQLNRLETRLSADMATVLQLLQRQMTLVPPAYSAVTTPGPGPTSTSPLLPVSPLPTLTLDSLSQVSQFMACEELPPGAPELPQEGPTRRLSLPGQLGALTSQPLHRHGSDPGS

SMILES	hERG current change (%, negative = inhibition) at 10uM [%]
CCOC(=O)N1CCC(NC(=O)c2ccc3c(c2)N(Cc2ccccc2)CCS3)CC1	10.6
CCOC(=O)c1c(C)n2c3c(cc(C)cc13)CCC2	14.4
COCCCNC(=O)c1cn(C)c(=O)c2cc(OC)c(OC)cc12	15.8
CCOc1ccc(CCNC(=O)C2=C(C)C(=O)OC23CCC(C)CC3)cc1OCC (stereo not drawn)	-7.92
CC1CCCC(C)N1C(=O)CCN1C(=O)C2C3C=CC(C3)C2C1=O (stereo not drawn)	17.5
CCn1c(CSc2nnc(C)n2-c2ccccc2)nc2cc(S(=O)(=O)N(C)C)ccc21	-7.31
CCC(=O)Nc1ccc(S(=O)(=O)Nc2ccccn2)cc1	19.7
NC(=O)N/N=C/c1coc2ccc(O)cc2c1=O	3.2
CNC(=O)c1cc2c(=O)n3cccc(C)c3nc2n(C(C)C)c1=N	-77.3
CCC(=O)NCC(=O)OCC(=O)c1ccccc1	11.4
Cc1nc(N2CCN(C(=O)c3ccco3)CC2)c2oc3ccccc3c2n1.Cl	-54.8
c1ccc(Oc2cccc(CN3CCOCC3)c2)cc1	-29.4
CCN(CC)S(=O)(=O)c1cccc(C(=O)NCCCn2ccnc2)c1	-2.28
Cc1cc(C(C)(C)C)c(OC(=O)[C@@H]2OC(c3ccccc3)=C[C@H]2c2ccccc2)c(C(C)(C)C)c1	7.58
CCc1cc2c(NCc3ccccc3)nc(C)nc2s1.Cl	-35.8
Cc1ccccc1NC(=O)NCCN1CC1	9.42
O=C(c1cc2cc(Cl)ccc2[nH]1)N1CCN(Cc2ccc3c(c2)OCO3)CC1	9.05
CC1CC(CC(C)C(=O)Nc2nncs2)C(=O)O1 (stereo not drawn)	-2.64
Cn1c(=O)[nH]c(=O)c2c1nc(NC1CCCCC1)n2Cc1ccccc1	-7.05
O=S(=O)(NCCCCNS(=O)(=O)c1ccc(F)cc1)c1ccc(F)cc1	-14.1
Cc1ccc(CNC(=O)c2cn(C3CCCC3)c(=O)c3c2c2ccccc2n3C)o1	-10.6
COC(=O)C1(NC(=O)NC23CC4CC(CC(C4)C2)C3)CCCCC1	16.1
COC(=O)C1C(O)CCC2CN3CCc4c([nH]c5ccccc45)C3CC21 (stereo not drawn)	-21.1

SMILES	hERG current change (%, negative = inhibition) at 10uM [%]
COc1cccc(NC(=O)CN(C)C(=O)COc2cc(C)ccc2Cl)c1	-10.5
Cc1ccc(S(=O)(=O)N(C)C/N=C(\N)N[N+](=O)[O-])cc1	23.8
COc1ccc(/C=C2/SC(=S)N(CC(=O)O)C2=O)cc1OCc1ccc(Cl)cc1	16.6
COc1cc2ccccc2cc1C(=O)N1CCOCC1	-23.5
Cn1c(-c2c(N)n(C3CCCC3)c3nc4ccccc4nc23)nc2ccccc21	-1.92
Cc1ccc(S(=O)(=O)N2CCN(C(=O)C3CCCO3)CC2)cc1 (stereo not drawn)	3.91
COc1cc(-c2noc(C)c2C#Cc2ccc(N)cc2)cc(OC)c1OC	9.61
CCOC(=O)C1=C(C)NC(=O)CC1c1cc2c(cc1Br)OCO2 (stereo not drawn)	5.83
S=c1[nH]nc(COc2ccccc2)n1-c1ccccc1	15
COc1ccc(N(C)S(=O)(=O)c2cccc(C(=O)Nc3cc(OC)ccc3OC)c2)cc1	13.5
CC1(C)Cc2ccccc2-c2nnc(-c3ccc(O)cc3)n21	23.1
O=C(CCS(=O)(=O)c1ccccc1)N1CCN(c2ccc(F)cc2)CC1	-35.9
COc1ccc(Nc2oc(COc3ccc(OC)cc3)nc2C#N)cc1	7.69
O=C(N/N=C/c1coc2ccccc2c1=O)c1cc(Br)ccc1O	26.9
COc1cccc(/C=N/NC(=O)c2ccc([N+](=O)[O-])cc2Cl)c1O	6.52
COc1ccc(O)c(C(=O)c2cnc3onc(C)c3c2)c1	2.99
Cc1nnc(SCc2cn3ccsc3n2)n(N)c1=O	9.36
CC1CC(=O)Nc2ccccc2N1C(=O)Nc1ccccc1 (stereo not drawn)	25.7
Cc1[nH]n(-c2ccccc2)c(=O)c1N=O	16.9
O=C(NC1CC2CCCC(C1)N2Cc1ccccc1)C1CCCCC1 (stereo not drawn)	-25.2
Cc1[nH]nc2c1C(c1c[nH]c3ccccc13)C(C#N)=C(N)O2 (stereo not drawn)	19.7
CCCCOc1ncnc2c1[nH]c1ccc(F)cc12	10.2
